Measurements reported in PMC12820563.
This is one part of the list. The list includes weakly bound sequences.

Target: T1, MBP-FoxP3dN (UniProt Q99JB6)
T1 sequence: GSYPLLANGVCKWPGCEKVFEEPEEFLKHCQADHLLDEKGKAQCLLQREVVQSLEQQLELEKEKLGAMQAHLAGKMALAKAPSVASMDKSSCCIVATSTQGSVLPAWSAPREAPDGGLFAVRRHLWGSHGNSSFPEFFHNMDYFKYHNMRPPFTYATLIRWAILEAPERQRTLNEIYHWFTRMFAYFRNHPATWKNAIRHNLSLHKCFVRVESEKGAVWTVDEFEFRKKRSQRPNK
Assay: PD-seq (MBP pull-down with sequencing)
Details: 20 mM Tris-HCl pH 7.5, 100 mM NaCl, 1.5 mM MgCl2, 0.4 uM protein, 0.1 uM dsDNA library, 30 min, room temperature, amylose pull-down; high values mean tight binding; double strand, one strand shown

| Sequence | binding signal (RPM ratio (pull-down/input)) |
| --- | --- |
| GATGATTGTTCTCCCAGCTGATGAATTTAGTTTTTCGAGTAAACAAATTTTCCTAATCTTTCTGTTCAAGCGCCATCTAC | 2.8 |
| GATGATTGTTCTCCCAGCTGATGAATTTAATGAATCGAGTAAACAAATTTTCCTAATCTTTCTGTTCAAGCGCCATCTAC | 0.272 |
| GATGATTGTTCTCCCAGCTGATGAATTATTAAACTCGAGTAAACAAATTTTCCTAATCTTTCTGTTCAAGCGCCATCTAC | 0.32 |
| GATGATTGTTCTCCCAGCTGATGAATTACGGACGTCGAGTAAACAAATTTTCCTAATCTTTCTGTTCAAGCGCCATCTAC | 0.325 |
| GATGATTGTTCTCCCAGCTGATGAATTATTACCTTCGAGTAAACAAATTTTCCTAATCTTTCTGTTCAAGCGCCATCTAC | 0.397 |
| GATGATTGTTCTCCCAGCTGATGAATTCTAGCATTCGAGTAAACAAATTTTCCTAATCTTTCTGTTCAAGCGCCATCTAC | 5.17 |
| GATGATTGTTCTCCCAGCTGATGAATTGACTAATTCGAGTAAACAAATTTTCCTAATCTTTCTGTTCAAGCGCCATCTAC | 0.356 |
| GATGATTGTTCTCCCAGCTGATGAATTCCACTTGTCGAGTAAACAAATTTTCCTAATCTTTCTGTTCAAGCGCCATCTAC | 0.571 |
| GATGATTGTTCTCCCAGCTGATGAATTCCTGAGATCGAGTAAACAAATTTTCCTAATCTTTCTGTTCAAGCGCCATCTAC | 0.228 |
| GATGATTGTTCTCCCAGCTGATGAATTGAAGCCGTCGAGTAAACAAATTTTCCTAATCTTTCTGTTCAAGCGCCATCTAC | 0.359 |
| GATGATTGTTCTCCCAGCTGATGAATTCGACACATCGAGTAAACAAATTTTCCTAATCTTTCTGTTCAAGCGCCATCTAC | 0.639 |
| GATGATTGTTCTCCCAGCTGATGAATTTACAACGTCGAGTAAACAAATTTTCCTAATCTTTCTGTTCAAGCGCCATCTAC | 0.527 |
| GATGATTGTTCTCCCAGCTGATGAATTGTCGGTCTCGAGTAAACAAATTTTCCTAATCTTTCTGTTCAAGCGCCATCTAC | 0.424 |
| GATGATTGTTCTCCCAGCTGATGAATTGTAGAATTCGAGTAAACAAATTTTCCTAATCTTTCTGTTCAAGCGCCATCTAC | 0.761 |
| GATGATTGTTCTCCCAGCTGATGAATTTACATTCTCGAGTAAACAAATTTTCCTAATCTTTCTGTTCAAGCGCCATCTAC | 0.674 |
| GATGATTGTTCTCCCAGCTGATGAATTGAGAGTATCGAGTAAACAAATTTTCCTAATCTTTCTGTTCAAGCGCCATCTAC | 0.532 |

| Sequence | binding signal (RPM ratio (pull-down/input)) |
| --- | --- |
| GATGATTGTTCTCCCAGCTGATGAATTCTCCAGATCGAGTAAACAAATTTTCCTAATCTTTCTGTTCAAGCGCCATCTAC | 0.141 |
| GATGATTGTTCTCCCAGCTGATGAATTCTAAGCTTCGAGTAAACAAATTTTCCTAATCTTTCTGTTCAAGCGCCATCTAC | 0.271 |
| GATGATTGTTCTCCCAGCTGATGAATTTGCAATCTCGAGTAAACAAATTTTCCTAATCTTTCTGTTCAAGCGCCATCTAC | 3 |
| GATGATTGTTCTCCCAGCTGATGAATTGGCGTACTCGAGTAAACAAATTTTCCTAATCTTTCTGTTCAAGCGCCATCTAC | 0.922 |
| GATGATTGTTCTCCCAGCTGATGAATTTGATCCCTCGAGTAAACAAATTTTCCTAATCTTTCTGTTCAAGCGCCATCTAC | 0.471 |
| GATGATTGTTCTCCCAGCTGATGAATTCTGTGCCTCGAGTAAACAAATTTTCCTAATCTTTCTGTTCAAGCGCCATCTAC | 1.19 |
| GATGATTGTTCTCCCAGCTGATGAATTGCGAGATTCGAGTAAACAAATTTTCCTAATCTTTCTGTTCAAGCGCCATCTAC | 0.748 |
| GATGATTGTTCTCCCAGCTGATGAATTCGCATGCTCGAGTAAACAAATTTTCCTAATCTTTCTGTTCAAGCGCCATCTAC | 2.12 |
| GATGATTGTTCTCCCAGCTGATGAATTTTATTTATCGAGTAAACAAATTTTCCTAATCTTTCTGTTCAAGCGCCATCTAC | 6.95 |
| GATGATTGTTCTCCCAGCTGATGAATTATGCTTTTCGAGTAAACAAATTTTCCTAATCTTTCTGTTCAAGCGCCATCTAC | 4.09 |
| GATGATTGTTCTCCCAGCTGATGAATTGCCAGCATCGAGTAAACAAATTTTCCTAATCTTTCTGTTCAAGCGCCATCTAC | 1.02 |
| GATGATTGTTCTCCCAGCTGATGAATTCGTATATTCGAGTAAACAAATTTTCCTAATCTTTCTGTTCAAGCGCCATCTAC | 2.61 |
| GATGATTGTTCTCCCAGCTGATGAATTACGCCGTTCGAGTAAACAAATTTTCCTAATCTTTCTGTTCAAGCGCCATCTAC | 1.26 |
| GATGATTGTTCTCCCAGCTGATGAATTCGCAGACTCGAGTAAACAAATTTTCCTAATCTTTCTGTTCAAGCGCCATCTAC | 0.262 |
| GATGATTGTTCTCCCAGCTGATGAATTAACGTTTTCGAGTAAACAAATTTTCCTAATCTTTCTGTTCAAGCGCCATCTAC | 0.537 |
| GATGATTGTTCTCCCAGCTGATGAATTCTATTCATCGAGTAAACAAATTTTCCTAATCTTTCTGTTCAAGCGCCATCTAC | 0.519 |
